Reference: the supplement of paper PMC7125110
± gives the standard error. Variants at the background level are over-represented here.

B1: glmS ribozyme (parent)
chain: AUAAAAGCGCCAGAACUACAGAAAUGUAGUUGACGAGGAGGAGGUUUAUCGAAUUUUCGGCGGAUGCCUCCAAA

Tests used:
Conditions in all cases: with glucosamine-6-phosphate
[1] = variants of: B1; experiment: self-cleavage kobs at 40 uM GlcN6P; higher = faster cleavage; RNA array
Method in brief: (§1)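 Barcoded glmS ribozyme variants on sequenced MiSeq chips were transcribed in situ by E. coli RNA polymerase and tracked through a hybridised Cy3 probe at 37 °C. Glucosamine-6-phosphate (40 μM to 10 mM) in HEPES/KCl/Mg(OAc)2 buffer was flowed in, and tiles were imaged over ~14 h. Signals were normalised to baseline and to non-cleaving reference variants; per-tile medians were fit to one- or two-exponential decays to give kobs. kcat and KM came from weighted Michaelis–Menten fits across concentrations.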

[2] = variants of: B1; experiment: self-cleavage kobs at 10000 uM GlcN6P; higher = faster cleavage; RNA array
Method in brief: as §1

[3] = variants of: B1; experiment: self-cleavage kobs at 640 uM GlcN6P; higher = faster cleavage; RNA array
Method in brief: as §1

[4] = variants of: B1; experiment: self-cleavage kobs at 160 uM GlcN6P; higher = faster cleavage; RNA array
Method in brief: as §1

[5] = variants of: B1; experiment: self-cleavage kobs at 2500 uM GlcN6P; higher = faster cleavage; RNA array
Method in brief: as §1

## C16A G66C
[1]
  self-cleavage kobs at 40 uM GlcN6P: < 1e-05 s⁻¹
[2]
  self-cleavage kobs at 10000 uM GlcN6P: 2.41e-05 ± 1.1e-05 s⁻¹

## G29C A33G A53U
[1]
  self-cleavage kobs at 40 uM GlcN6P: < 1e-05 s⁻¹
[2]
  self-cleavage kobs at 10000 uM GlcN6P: < 1e-05 s⁻¹

## C16G U30C A64U
[1]
  self-cleavage kobs at 40 uM GlcN6P: < 1e-05 s⁻¹

## G26U G40U
[1]
  self-cleavage kobs at 40 uM GlcN6P: 0.000119 ± 2.3e-05 s⁻¹

## A15G A42C G51C G60U C67A C68U
[1]
  self-cleavage kobs at 40 uM GlcN6P: < 1e-05 s⁻¹

## A15U G43A U57C
[1]
  self-cleavage kobs at 40 uM GlcN6P: < 1e-05 s⁻¹

## G29U A39C
[1]
  self-cleavage kobs at 40 uM GlcN6P: 2.91e-05 ± 9.8e-06 s⁻¹
[3]
  self-cleavage kobs at 640 uM GlcN6P: 0.000457 ± 5.8e-05 s⁻¹
[4]
  self-cleavage kobs at 160 uM GlcN6P: 8.26e-05 ± 1.4e-05 s⁻¹
[5]
  self-cleavage kobs at 2500 uM GlcN6P: 0.000781 ± 0.0001 s⁻¹
[2]
  self-cleavage kobs at 10000 uM GlcN6P: 0.00118 ± 0.00014 s⁻¹

## A15G A42G G66C
[1]
  self-cleavage kobs at 40 uM GlcN6P: < 1e-05 s⁻¹

## G29C A33U U46C A52G C58G
[1]
  self-cleavage kobs at 40 uM GlcN6P: < 1e-05 s⁻¹
[3]
  self-cleavage kobs at 640 uM GlcN6P: < 1e-05 s⁻¹

## U27G A33C G51C
[1]
  self-cleavage kobs at 40 uM GlcN6P: < 1e-05 s⁻¹

## A24C A48C G62U G63U C70G
[1]
  self-cleavage kobs at 40 uM GlcN6P: < 1e-05 s⁻¹

## C16A G29A
[1]
  self-cleavage kobs at 40 uM GlcN6P: 7.39e-05 ± 1.3e-05 s⁻¹
[3]
  self-cleavage kobs at 640 uM GlcN6P: 0.000549 ± 9.9e-05 s⁻¹
[4]
  self-cleavage kobs at 160 uM GlcN6P: 0.000175 ± 3.3e-05 s⁻¹
[5]
  self-cleavage kobs at 2500 uM GlcN6P: 0.00127 ± 0.00024 s⁻¹
[2]
  self-cleavage kobs at 10000 uM GlcN6P: 0.00227 ± 0.00042 s⁻¹

## C16A G29U
[1]
  self-cleavage kobs at 40 uM GlcN6P: 0.000701 ± 7.4e-05 s⁻¹
[3]
  self-cleavage kobs at 640 uM GlcN6P: 0.00517 ± 0.00081 s⁻¹
[4]
  self-cleavage kobs at 160 uM GlcN6P: 0.00212 ± 0.00064 s⁻¹
[5]
  self-cleavage kobs at 2500 uM GlcN6P: 0.0144 ± 0.0033 s⁻¹
[2]
  self-cleavage kobs at 10000 uM GlcN6P: 0.0387 ± 0.0071 s⁻¹

## C19A A33G A36G G40A A42G G62U G63A C71A
[1]
  self-cleavage kobs at 40 uM GlcN6P: < 1e-05 s⁻¹
[5]
  self-cleavage kobs at 2500 uM GlcN6P: < 1e-05 s⁻¹

## A15G C16G G59A C61G
[1]
  self-cleavage kobs at 40 uM GlcN6P: < 1e-05 s⁻¹
[2]
  self-cleavage kobs at 10000 uM GlcN6P: < 1e-05 s⁻¹

## C16U U30A
[1]
  self-cleavage kobs at 40 uM GlcN6P: 7.15e-05 ± 7.9e-06 s⁻¹
[3]
  self-cleavage kobs at 640 uM GlcN6P: 0.000648 ± 0.00011 s⁻¹
[4]
  self-cleavage kobs at 160 uM GlcN6P: 0.000131 ± 2.6e-05 s⁻¹
[5]
  self-cleavage kobs at 2500 uM GlcN6P: 0.00171 ± 0.00029 s⁻¹
[2]
  self-cleavage kobs at 10000 uM GlcN6P: 0.00242 ± 0.00027 s⁻¹

## G26U C34A
[1]
  self-cleavage kobs at 40 uM GlcN6P: < 1e-05 s⁻¹
[5]
  self-cleavage kobs at 2500 uM GlcN6P: < 1e-05 s⁻¹

## A15G U47G G60A C61U C68A
[1]
  self-cleavage kobs at 40 uM GlcN6P: 6.07e-05 ± 2.7e-05 s⁻¹
[3]
  self-cleavage kobs at 640 uM GlcN6P: 0.000299 ± 9.2e-05 s⁻¹
[5]
  self-cleavage kobs at 2500 uM GlcN6P: 0.00013 ± 3.6e-05 s⁻¹

## A15G G37A U49A A52G G59A G62U
[1]
  self-cleavage kobs at 40 uM GlcN6P: < 1e-05 s⁻¹
[5]
  self-cleavage kobs at 2500 uM GlcN6P: < 1e-05 s⁻¹

## G29A C34A G59A G63A
[1]
  self-cleavage kobs at 40 uM GlcN6P: < 1e-05 s⁻¹
[3]
  self-cleavage kobs at 640 uM GlcN6P: < 1e-05 s⁻¹
[4]
  self-cleavage kobs at 160 uM GlcN6P: < 1e-05 s⁻¹
[5]
  self-cleavage kobs at 2500 uM GlcN6P: < 1e-05 s⁻¹

## A15G C71G
[1]
  self-cleavage kobs at 40 uM GlcN6P: 0.000107 ± 1.2e-05 s⁻¹
[3]
  self-cleavage kobs at 640 uM GlcN6P: 0.00066 ± 8.8e-05 s⁻¹
[4]
  self-cleavage kobs at 160 uM GlcN6P: 0.000256 ± 4.1e-05 s⁻¹
[5]
  self-cleavage kobs at 2500 uM GlcN6P: 0.00214 ± 0.00045 s⁻¹

## G29A G35U C50U
[1]
  self-cleavage kobs at 40 uM GlcN6P: < 1e-05 s⁻¹
[2]
  self-cleavage kobs at 10000 uM GlcN6P: < 1e-05 s⁻¹

## A15G G43A C71G
[1]
  self-cleavage kobs at 40 uM GlcN6P: < 1e-05 s⁻¹
[2]
  self-cleavage kobs at 10000 uM GlcN6P: < 1e-05 s⁻¹

## A15G A52C U55C
[1]
  self-cleavage kobs at 40 uM GlcN6P: < 1e-05 s⁻¹

## C16A G44C
[1]
  self-cleavage kobs at 40 uM GlcN6P: < 1e-05 s⁻¹
[3]
  self-cleavage kobs at 640 uM GlcN6P: < 1e-05 s⁻¹
[4]
  self-cleavage kobs at 160 uM GlcN6P: < 1e-05 s⁻¹
[2]
  self-cleavage kobs at 10000 uM GlcN6P: < 1e-05 s⁻¹

## C16U C34A A39U A52U C70A
[1]
  self-cleavage kobs at 40 uM GlcN6P: < 1e-05 s⁻¹
[3]
  self-cleavage kobs at 640 uM GlcN6P: < 1e-05 s⁻¹

## A15U C34A G35C A48C G51C
[1]
  self-cleavage kobs at 40 uM GlcN6P: < 1e-05 s⁻¹

## C16A C61G
[1]
  self-cleavage kobs at 40 uM GlcN6P: < 1e-05 s⁻¹
[2]
  self-cleavage kobs at 10000 uM GlcN6P: < 1e-05 s⁻¹

## G29U C34G A48G
[1]
  self-cleavage kobs at 40 uM GlcN6P: < 1e-05 s⁻¹
[2]
  self-cleavage kobs at 10000 uM GlcN6P: < 1e-05 s⁻¹

## G29C U45A U46A A52U
[1]
  self-cleavage kobs at 40 uM GlcN6P: < 1e-05 s⁻¹
[3]
  self-cleavage kobs at 640 uM GlcN6P: < 1e-05 s⁻¹

## C16G U69C
[1]
  self-cleavage kobs at 40 uM GlcN6P: 5.13e-05 ± 2e-05 s⁻¹
[2]
  self-cleavage kobs at 10000 uM GlcN6P: 0.000195 ± 5.5e-05 s⁻¹

## C16U G60C C67A
[1]
  self-cleavage kobs at 40 uM GlcN6P: < 1e-05 s⁻¹

## G29U A42G G43A
[1]
  self-cleavage kobs at 40 uM GlcN6P: < 1e-05 s⁻¹

## A15G G62A
[1]
  self-cleavage kobs at 40 uM GlcN6P: < 1e-05 s⁻¹
[4]
  self-cleavage kobs at 160 uM GlcN6P: < 1e-05 s⁻¹
[5]
  self-cleavage kobs at 2500 uM GlcN6P: < 1e-05 s⁻¹
[2]
  self-cleavage kobs at 10000 uM GlcN6P: < 1e-05 s⁻¹

## G29C G43U C67U
[1]
  self-cleavage kobs at 40 uM GlcN6P: < 1e-05 s⁻¹
[2]
  self-cleavage kobs at 10000 uM GlcN6P: < 1e-05 s⁻¹

## A15U C34G G66U C71U
[1]
  self-cleavage kobs at 40 uM GlcN6P: < 1e-05 s⁻¹

## C16U U30G G35U G38C
[1]
  self-cleavage kobs at 40 uM GlcN6P: < 1e-05 s⁻¹

## C16U C34U G37U
[1]
  self-cleavage kobs at 40 uM GlcN6P: < 1e-05 s⁻¹

## G29A C61U
[1]
  self-cleavage kobs at 40 uM GlcN6P: < 1e-05 s⁻¹
[3]
  self-cleavage kobs at 640 uM GlcN6P: < 1e-05 s⁻¹
[4]
  self-cleavage kobs at 160 uM GlcN6P: < 1e-05 s⁻¹
[5]
  self-cleavage kobs at 2500 uM GlcN6P: < 1e-05 s⁻¹

## G29A G59A
[1]
  self-cleavage kobs at 40 uM GlcN6P: < 1e-05 s⁻¹
[3]
  self-cleavage kobs at 640 uM GlcN6P: < 1e-05 s⁻¹

## C16G U49A A64U G66C
[1]
  self-cleavage kobs at 40 uM GlcN6P: < 1e-05 s⁻¹

## G29A G59U C71G
[1]
  self-cleavage kobs at 40 uM GlcN6P: < 1e-05 s⁻¹

## C16G U49C G59U
[1]
  self-cleavage kobs at 40 uM GlcN6P: < 1e-05 s⁻¹
[2]
  self-cleavage kobs at 10000 uM GlcN6P: < 1e-05 s⁻¹

## G29U A52C U56A
[1]
  self-cleavage kobs at 40 uM GlcN6P: < 1e-05 s⁻¹
[3]
  self-cleavage kobs at 640 uM GlcN6P: < 1e-05 s⁻¹
[4]
  self-cleavage kobs at 160 uM GlcN6P: < 1e-05 s⁻¹
[5]
  self-cleavage kobs at 2500 uM GlcN6P: < 1e-05 s⁻¹
[2]
  self-cleavage kobs at 10000 uM GlcN6P: < 1e-05 s⁻¹

## A15U U57A
[1]
  self-cleavage kobs at 40 uM GlcN6P: < 1e-05 s⁻¹

## A15G G43C A52U
[1]
  self-cleavage kobs at 40 uM GlcN6P: < 1e-05 s⁻¹

## C16A G35U
[1]
  self-cleavage kobs at 40 uM GlcN6P: < 1e-05 s⁻¹
[3]
  self-cleavage kobs at 640 uM GlcN6P: < 1e-05 s⁻¹
[4]
  self-cleavage kobs at 160 uM GlcN6P: < 1e-05 s⁻¹
[5]
  self-cleavage kobs at 2500 uM GlcN6P: < 1e-05 s⁻¹
[2]
  self-cleavage kobs at 10000 uM GlcN6P: < 1e-05 s⁻¹

## C16A G35A
[1]
  self-cleavage kobs at 40 uM GlcN6P: < 1e-05 s⁻¹
[3]
  self-cleavage kobs at 640 uM GlcN6P: < 1e-05 s⁻¹
[4]
  self-cleavage kobs at 160 uM GlcN6P: < 1e-05 s⁻¹
[5]
  self-cleavage kobs at 2500 uM GlcN6P: < 1e-05 s⁻¹
[2]
  self-cleavage kobs at 10000 uM GlcN6P: < 1e-05 s⁻¹

## A15G G63C
[1]
  self-cleavage kobs at 40 uM GlcN6P: < 1e-05 s⁻¹
[3]
  self-cleavage kobs at 640 uM GlcN6P: < 1e-05 s⁻¹
[4]
  self-cleavage kobs at 160 uM GlcN6P: < 1e-05 s⁻¹
[5]
  self-cleavage kobs at 2500 uM GlcN6P: < 1e-05 s⁻¹
[2]
  self-cleavage kobs at 10000 uM GlcN6P: < 1e-05 s⁻¹

## A15G U57C
[1]
  self-cleavage kobs at 40 uM GlcN6P: < 1e-05 s⁻¹

## G29C A33U G51A
[1]
  self-cleavage kobs at 40 uM GlcN6P: < 1e-05 s⁻¹

## G29C G35U
[1]
  self-cleavage kobs at 40 uM GlcN6P: < 1e-05 s⁻¹
[3]
  self-cleavage kobs at 640 uM GlcN6P: < 1e-05 s⁻¹
[4]
  self-cleavage kobs at 160 uM GlcN6P: < 1e-05 s⁻¹
[2]
  self-cleavage kobs at 10000 uM GlcN6P: < 1e-05 s⁻¹

## G29C G35C
[1]
  self-cleavage kobs at 40 uM GlcN6P: < 1e-05 s⁻¹
[3]
  self-cleavage kobs at 640 uM GlcN6P: < 1e-05 s⁻¹
[4]
  self-cleavage kobs at 160 uM GlcN6P: < 1e-05 s⁻¹
[5]
  self-cleavage kobs at 2500 uM GlcN6P: < 1e-05 s⁻¹
